# Results: PubChem BioAssay AID1745853 (National Center for Advancing Translational Sciences (NCATS), 2022)
# “And” between values parts separate entries of the source, which are not always exact repeats. Equal values may be shown once. The list shows a part of the results. The main result of the screen is listed elsewhere. These columns were measured beside it and carry no call.
# How the values were obtained:
# Test in all cases: Primary Screen for Target Class Profiling of Small Molecule Inhibitors of Methyltransferases
# [1] = target: Glycine N-methyltransferase (Homo sapiens) (UniProt Q14749); conditions: purified enzyme, MTase-Glo SAH luminescence; measured here: GNMT inhibition; at 40 µM; stronger effect = lower value
# Method in brief: (§1)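 Each enzyme was reacted with SAM and its substrate, with compounds tested once at 40 uM; SAH formed was read by MTase-Glo luminescence.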
# [2] = target: Guanidinoacetate N-methyltransferase (Homo sapiens) (UniProt Q14353); conditions: purified enzyme, MTase-Glo SAH luminescence; measured here: GAMT inhibition; at 40 µM; stronger effect = lower value
# Method in brief: as §1
# [3] = target: Histamine N-methyltransferase (Homo sapiens) (UniProt P50135); conditions: purified enzyme, MTase-Glo SAH luminescence; measured here: HNMT inhibition; at 40 µM; stronger effect = lower value
# Method in brief: as §1
# [4] = target: Nicotinamide N-methyltransferase (Homo sapiens) (UniProt P40261); conditions: purified enzyme, MTase-Glo SAH luminescence; measured here: NNMT inhibition; at 40 µM; stronger effect = lower value
# Method in brief: as §1
# [5] = target: Phenylethanolamine N-methyltransferase (Homo sapiens) (UniProt P11086); conditions: purified enzyme, MTase-Glo SAH luminescence; measured here: PNMT inhibition; at 40 µM; stronger effect = lower value
# Method in brief: as §1
# % is scaled to controls: 0 for no effect and ±100 for the full control effect.
SMILES,"activity change, negative = inhibition [1]","activity change, negative = inhibition [2]","activity change, negative = inhibition [3]","activity change, negative = inhibition [4]","activity change, negative = inhibition [5]"
COc1ccc(-c2cc3n(n2)CC(C)(C(=O)NCc2ccccc2OC)N(c2cc(Cl)ccc2C)C3=O)cc1 (configuration not stated),8.25%,3.59%,9.21%,7.34%,2.15%
CCN1C(=O)c2c(C(=O)NCc3cc(OC)ccc3OC)ncn2CC1(C)C(=O)NC1CCCC1 (configuration not stated),3.63%,0%,9.84%,2.3%,10.3%
CN(Cc1cccn1C)C(=O)c1ccccc1,-7.34%,-6.19%,-3.39%,-15.1%,-25.2%
COc1ccc(N2CCN(C(CNS(=O)(=O)c3ccccc3)c3ccco3)CC2)cc1 (configuration not stated),-2.47%,2.86%,-6.88%,-10.8%,-5.22%
CCCN1C(=O)c2ccc(-c3ccccc3)n2CC1(C)C(=O)NC1CCCCC1 (configuration not stated),4.53%,0%,4.38%,7.7%,4.72%
CN(C)C[C@@H]1CN(c2ncccn2)C[C@H]1NC(=O)COc1ccc(Cl)cc1,-1.36%,-3.43%,-1.45%,-9.05%,-2.23%
O=C(Nc1ccn(Cc2ccc(O)cc2C(F)(F)F)n1)c1c(F)cccc1F,-2.93%,2.67%,10%,-12.4%,3.29%
CC1CCC(NC(=O)C2(C)Cn3c(cc4occc43)C(=O)N2c2ccc(Cl)cc2)CC1 (configuration not stated),-7.39%,0.723%,1.38%,-16.5%,-4.83%
CC1(C(=O)NCC2CCCO2)Cn2c(cc3ccccc32)C(=O)N1C1CCCc2ccccc21 (configuration not stated),6.2%,3.76%,8.33%,9.34%,0.238%
CCCOc1ccc(CNC(=O)c2ncn3c2C(=O)N(CCC)C(C)(C(=O)NCCC(C)C)C3)cc1 (configuration not stated),-0.817%,0%,5.1%,3.49%,8.39%
O=C(Cn1cccn1)N1CC[C@@H]2[C@@H](CCC(=O)N2CCc2cnc[nH]2)C1,-2.64%,-0.104%,0.555%,-1.24%,-4.61%
Cc1nnc(-c2sc(NC(=O)[C@H](C(C)C)n3c(=O)[nH]c4ccccc4c3=O)nc2C)o1,3.01%,0.273%,10.7%,-20.7%,-0.658%
C[C@@H](Cc1cc2c(c(C(N)=O)c1)N(CCCO)CC2)NCCOc1ccccc1OCC(F)(F)F,-1.96%,-5.23%,-1.75%,-17.2%,-7.19%
COc1cccc(NC(=O)O[C@@H]2CO[C@H]3[C@@H]2OC[C@@H]3Nc2nccc(-c3ccccc3)n2)c1,0.536%,-0.609%,1.63%,6.75%,4.79%
CCn1cnnc1CC1CCN(S(=O)(=O)c2ccc(OC)cc2)CC1,3%,0%,3.93%,-1.87%,3.68%
COC(=O)[C@@H]1[C@H]2C[C@H]3c4[nH]c5ccccc5c4CCN3C[C@@H]2CC[C@@H]1O,1.63% and 4.81%,4.06% [middle of 4 runs],10.6% and 8.41%,-6.56% [middle of 4 runs],4.77% [middle of 4 runs]

SMILES,"activity change, negative = inhibition [1]","activity change, negative = inhibition [2]","activity change, negative = inhibition [3]","activity change, negative = inhibition [4]","activity change, negative = inhibition [5]"
CCCSc1nc(NC2CC2c2ccc(F)c(F)c2)c2nnn(C3CC(OCCO)C(O)C3O)c2n1 (configuration not stated),-22.8%,,-27.8%,,
CCOc1ccc(CN2C(=O)c3cc4sccc4n3CC2(C)C(=O)NC2CCCCC2C)cc1 (configuration not stated),4.14%,8.54%,2.08%,2.72%,-1.68%
C[C@]12C=CC(=O)C=C1CC[C@@H]1[C@@H]2[C@@H](O)C[C@@]2(C)[C@H]1CC[C@]2(O)C(=O)COC(=O)CCC(=O)O,-2.72%,-6.08%,17.2%,-12.3%,3.21%
CCC(C)n1ncn(-c2ccc(N3CCN(c4ccc(OC[C@H]5CO[C@](Cn6cncn6)(c6ccc(Cl)cc6Cl)O5)cc4)CC3)cc2)c1=O (some centres not stated),-2.84%,,2.16%,,
CCCC1c2ccc(C)n2CCN1C(=O)NC(CC(=O)OCC)c1ccccc1 (configuration not stated),-9.59%,1.23%,-14.2%,-6.49%,-9.71%
O=C(Cn1nc2nc(Nc3ccc(F)cc3)ccn2c1=O)Nc1ccc(F)cc1,-4.51%,-5.19%,2.2%,-9.66%,-7.23%
CC(C)C[C@H](NC(=O)[C@H]1O[C@@H]1C(=O)O)C(=O)NCCCCN=C(N)N,,-3.87%,,-21.1%,-9.07%
CC(C)Cn1c(=O)c2ccc(C(=O)NC(C)C)cc2n2c(SCc3cccc(Cl)c3)nnc12,2.47%,3.93%,0.225%,-2.67%,0.224%
CC1(C(=O)NC2CCCCC2)Cn2c(cc3ccccc32)C(=O)N1Cc1cccc(Br)c1 (configuration not stated),-2.58%,1.91%,-2.36%,-3.03%,0.493%
C=C(C)C(O)COc1ccc(CC(=O)O)cc1 (configuration not stated),0.23%,2.21%,10.6%,-8.03%,-1.94%
COC1CCC12CCNCC2 (configuration not stated),-4.86%,-5.08%,-2.55%,-7.79%,-10.3%
CCNC(=O)NCCc1noc(-c2ccncc2)n1,1.13%,0.459%,0.566%,-2.43%,3.34%
CCN(CCNC(=O)C1CCCCC(=O)N1C)Cc1ccccc1 (configuration not stated),-0.243%,1.33%,1.94%,-2.67%,-0.927%
CCC(C)NC(=O)c1ccc2c(=O)n(C)c3nn(CC(=O)NC(C)C)c(=O)n3c2c1 (configuration not stated),8.54%,2.83%,7.72%,6.44%,8.3%
COc1ccc(OC)c2c1cc1n2CC(C)(C(=O)NC2CCCCC2C)N(Cc2ccccc2)C1=O (configuration not stated),-10.7%,-0.883%,-6.23%,-13.2%,-3.91%
